T1: RBFOX1 RRM (Homo sapiens, UniProt Q9NWB1 109-208)
T1 sequence: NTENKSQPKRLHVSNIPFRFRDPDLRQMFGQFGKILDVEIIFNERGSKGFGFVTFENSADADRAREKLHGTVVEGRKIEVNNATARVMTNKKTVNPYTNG

B1: UCACAGG (DNA:RNA)
RNA: GGGAGACCGGAAUUCAGAUUGUCCUCACAGGUUAAAUCCCGUCGUAGCCACCA
DNA 1: CAATCTGAATTCCGGTCTCCC
DNA 2: TGGTGGCTACGACGGGATT
B2: GCCAUGG (DNA:RNA)
RNA: B1 RNA with U25G, A27C, C28A, A29U
DNA 1: CAATCTGAATTCCGGTCTCCC
DNA 2: TGGTGGCTACGACGGGATT
B3: CCCGUCA (DNA:RNA)
RNA: B1 RNA with U25C, A27C, C28G, A29U, G30C, G31A
DNA 1: CAATCTGAATTCCGGTCTCCC
DNA 2: TGGTGGCTACGACGGGATT
B4: AAAUCCU (DNA:RNA)
RNA: B1 RNA with U25A, C26A, C28U, A29C, G30C, G31U
DNA 1: CAATCTGAATTCCGGTCTCCC
DNA 2: TGGTGGCTACGACGGGATT
B5: GUGCACG (DNA:RNA)
RNA: B1 RNA with U25G, C26U, A27G, G30C
DNA 1: CAATCTGAATTCCGGTCTCCC
DNA 2: TGGTGGCTACGACGGGATT
B6: AAUUGCA (DNA:RNA)
RNA: GGGAGACCGGAAUUCAGAUUGUCCAAUUGCAUUAAAUCCCGUCGUAGCCACCA
DNA 1: CAATCTGAATTCCGGTCTCCC
DNA 2: TGGTGGCTACGACGGGATT
B7: UAAAGUU (DNA:RNA)
RNA: B6 RNA with A25U, U27A, U28A, C30U, A31U
DNA 1: CAATCTGAATTCCGGTCTCCC
DNA 2: TGGTGGCTACGACGGGATT
B8: CUGCUCU (DNA:RNA)
RNA: B6 RNA with A25C, A26U, U27G, U28C, G29U, A31U
DNA 1: CAATCTGAATTCCGGTCTCCC
DNA 2: TGGTGGCTACGACGGGATT
B9: AUCGAGG (DNA:RNA)
RNA: B1 RNA with U25A, C26U, A27C, C28G
DNA 1: CAATCTGAATTCCGGTCTCCC
DNA 2: TGGTGGCTACGACGGGATT
B10: AUGUAGU (DNA:RNA)
RNA: B6 RNA with A26U, U27G, G29A, C30G, A31U
DNA 1: CAATCTGAATTCCGGTCTCCC
DNA 2: TGGTGGCTACGACGGGATT
B11: ACACUGA (DNA:RNA)
RNA: B1 RNA with U25A, A29U, G31A
DNA 1: CAATCTGAATTCCGGTCTCCC
DNA 2: TGGTGGCTACGACGGGATT
B12: ACCCAAG (DNA:RNA)
RNA: B1 RNA with U25A, A27C, G30A
DNA 1: CAATCTGAATTCCGGTCTCCC
DNA 2: TGGTGGCTACGACGGGATT
B13: GAGCGCG (DNA:RNA)
RNA: B6 RNA with A25G, U27G, U28C, A31G
DNA 1: CAATCTGAATTCCGGTCTCCC
DNA 2: TGGTGGCTACGACGGGATT
B14: AGACGUA (DNA:RNA)
RNA: B6 RNA with A26G, U27A, U28C, C30U
DNA 1: CAATCTGAATTCCGGTCTCCC
DNA 2: TGGTGGCTACGACGGGATT
B15: UAGGGUU (DNA:RNA)
RNA: B6 RNA with A25U, U27G, U28G, C30U, A31U
DNA 1: CAATCTGAATTCCGGTCTCCC
DNA 2: TGGTGGCTACGACGGGATT
B16: AGAGCAC (DNA:RNA)
RNA: B6 RNA with A26G, U27A, U28G, G29C, C30A, A31C
DNA 1: CAATCTGAATTCCGGTCTCCC
DNA 2: TGGTGGCTACGACGGGATT
B17: UAGGGUC (DNA:RNA)
RNA: B6 RNA with A25U, U27G, U28G, C30U, A31C
DNA 1: CAATCTGAATTCCGGTCTCCC
DNA 2: TGGTGGCTACGACGGGATT
B18: CAAGGCU (DNA:RNA)
RNA: B6 RNA with A25C, U27A, U28G, A31U
DNA 1: CAATCTGAATTCCGGTCTCCC
DNA 2: TGGTGGCTACGACGGGATT
B19: GGUACAU (DNA:RNA)
RNA: B6 RNA with A25G, A26G, U28A, G29C, C30A, A31U
DNA 1: CAATCTGAATTCCGGTCTCCC
DNA 2: TGGTGGCTACGACGGGATT
B20: AAAAGAA (DNA:RNA)
RNA: B6 RNA with U27A, U28A, C30A
DNA 1: CAATCTGAATTCCGGTCTCCC
DNA 2: TGGTGGCTACGACGGGATT

Residue numbers refer to the chain shown, from its start. Some of the results follow.

In this experiment the target is T1, RBFOX1 RRM. As to the kind of experiment: EMSA; HiTS-Eq, 1 nM pool, 10 min; buffer printed only for the single-RNA assays: 10 mM Tris pH 7.5, 150 mM NaCl, 3.4 mM EDTA, 0.001% NP-40, 30 C. The conditions noted are these: tags: His6 N-terminal (pET28a); label: 5' 32P. The gist of the method: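 Relative association constants, normalised to the cognate motif, were derived by comparing read counts of each RNA species with those of the control reaction. The RNA sequenced was the free fraction, separated by 8% native PAGE after a 10 min equilibration in 50 µL of 1 nM 5′-radiolabelled RNA (7 randomized nucleotides) with increasing concentrations of purified wild-type or mutant RbFox RRM.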
(In general: Mobility shift assays separate free from complexed probe on a gel.)
Turning to B1, the binding signal is 0.00827 KA relative to UGCAUGU.

Regarding B2, the binding signal is 0.0159 KA relative to UGCAUGU.

Take B3: the binding signal was 0.00389 KA relative to UGCAUGU.

For the molecule B4, the binding signal is 0.00113 KA relative to UGCAUGU.

In the case of B5, the binding signal is 0.62 KA relative to UGCAUGU.

As to B6, the binding signal is 0.0136 KA relative to UGCAUGU.

On to B7, for which the binding signal is 0.0092 KA relative to UGCAUGU.

In the case of B8, the binding signal is 0.0136 KA relative to UGCAUGU.

As for B9, the binding signal was 0.0103 KA relative to UGCAUGU.

For the molecule B10, the binding signal is 0.00813 KA relative to UGCAUGU.

In the case of B11, the binding signal is 0.00517 KA relative to UGCAUGU.

For B12, the binding signal was 0.0029 KA relative to UGCAUGU.

As for B13, the binding signal is 0.0177 KA relative to UGCAUGU.

In the case of B14, the binding signal was 0.00585 KA relative to UGCAUGU.

For the molecule B15, the binding signal was 0.0189 KA relative to UGCAUGU.

Turning to B16, the binding signal is 0.00559 KA relative to UGCAUGU.

Turning to B17, the binding signal is 0.015 KA relative to UGCAUGU.

As for B18, the binding signal is 0.00732 KA relative to UGCAUGU.

As to B19, the binding signal was 0.00481 KA relative to UGCAUGU.

Consider B20, for which the binding signal was 0.00178 KA relative to UGCAUGU.

The values above are taken from publication PMC9911399, “Two distinct binding modes provide the RNA-binding protein RbFox with extraordinary sequence specificity”.
